Test results as given in patent publication US20240076346A1 (KAHR MEDICAL, published 2024).

Key:
[1] = target: T1, mouse PDL1 expressed on cells (mouse, UniProt Q9EP73); experiment: flow cytometry on Renca cells (mouse PD-L1 and mouse PVR), with or without blocking antibodies, detection with PE anti-human IgG1
T1 construct: whole, on cells; also called mPDL1
Excerpt: MFI values presented were used to create binding curve graphs with a FlowJo software.
Dose dependent binding of the PD1 and TIGIT domains of DSP502 to mouse PDL1 and mouse PVR expressed on cells was also observed, using a AB12 cell line endogenously expressing PVR (FIGS. 22A-B, a PE conjugated anti-human IgG1 antibody was used as a detector antibody) or Renca, cell line endogenously expressing both PD-L1 and PVR (FIGS. 21A-B, a PE conjugated anti-human IgG1 antibody was used as a detector antibody).

[2] = target: T2, Human PDL-1-Fc (recombinant, plate bound) (human, UniProt Q9NZQ7 part only, limits assumed); experiment: bridging ELISA: plate bound PDL1-Fc captures DSP502, detected with human CD155 (PVR)-mouse IgG2a Fc and a peroxidase conjugate
T2 construct: also called hrPDL1-Fc protein; Human PDL-1 FC Tag; not shown: Fc tag
Description: Detection was effected with streptavidin HRP followed by adding a TMB substrate according to a standard ELISA protocol using a Plate reader (Thermo Scientific, Multiscan FC) at 450 nm, with reference at 540 nm.
Simultaneous binding of TIGIT-PD1 heterodimer to its counterparts, as determined by ELISA—Flat bottom 96-wells plates were pre-coated with hrPDL1-Fc protein, followed by blocking and washing. Serially diluted purified TIGIT-PD1 heterodimer samples were added to the corresponding pre-coated wells. Following incubation and an additional washing step, a detection protein—human CD155 (PVR) conjugate to mouse IgG2a Fc, was added and allowed to bind to the captured protein. Followed an additional wash, peroxidase-conjugated AffiniPure Goat Anti-Mouse IgG was added and after incubation and wash detection was effected with a TMB substrate according to a standard ELISA protocol using a plate reader (Thermo Scientific, Multiscan FC) at 450 nm, with reference at 620 nm.

T1 sequence (Q9EP73 19-290): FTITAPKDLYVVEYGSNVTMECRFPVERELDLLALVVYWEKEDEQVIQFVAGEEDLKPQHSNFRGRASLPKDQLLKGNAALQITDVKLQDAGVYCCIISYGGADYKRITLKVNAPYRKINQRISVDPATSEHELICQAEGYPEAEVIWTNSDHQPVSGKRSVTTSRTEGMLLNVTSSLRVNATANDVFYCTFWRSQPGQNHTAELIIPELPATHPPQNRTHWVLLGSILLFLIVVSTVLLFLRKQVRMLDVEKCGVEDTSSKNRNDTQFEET
T2 sequence (Q9NZQ7 19-238 limits assumed): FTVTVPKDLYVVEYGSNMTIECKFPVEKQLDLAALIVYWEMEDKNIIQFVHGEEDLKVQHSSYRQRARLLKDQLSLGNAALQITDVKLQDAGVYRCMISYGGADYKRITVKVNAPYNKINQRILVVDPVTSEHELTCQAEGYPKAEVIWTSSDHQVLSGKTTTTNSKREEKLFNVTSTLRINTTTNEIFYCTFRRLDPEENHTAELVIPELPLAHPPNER

B1: TIGIT-PD1 heterodimer DSP502 (Fc fusion)
chain 1: MTGTIETTGNISAEKGGSIALQCHLSSTTAQVTQVNWEQQDQLLAISNADLGWHISPSFKDRVAPGPGLGLTLQSLTVNDTGEYFCIYHTYPDGTYTGRIFLEVLESSVAEHGGGGSGGGGS[letters of human IgG1 Fc with changes not shown]
chain 2: DSPDRPWNPPTFSPALLVVTEGDNATFTCSFSNTSESFVLNWYRMSPSNQTDKLAAFPEDRSQPGQDSRFRVTQLPNGRDFHMSVVRARRNDSGTYLCGAISLAPKAQIKESLRAELRVTERRAEVPTAHPSPSPRPAGQGGGGSGGGGS[letters of human IgG1 Fc with changes not shown]
notes: Knob-into-hole IgG1 Fc heterodimer made in Expi293F; tested as supernatant and as purified protein; also called PD1-TIGIT heterodimer
For B1, the binding result [1] was “binds” and the “EC50 (read off the curve)” value [2] was ~5 µg/mL.
